# Measured values as given in PMC12136788.
# This is one part of the list.
# B1: ENSG00000130560:stop:overlap|stop_codon|ENSG00000130560|stop_codon|NA|stop_codon (ssRNA)
# RNA: GGGAGUUCUACAGUCCGACGAUCCAGAAACGGGGCCUGUCAUGCUGCAGAUCUCUAGAAUCUUCCAGACACUAAAUCGCACGUAGGUGGCGUUGUUCCACUCGGCUAUCAGGCCACAGCAGCCCCCUGGUGCGGCCCGAGACCCAACAGAGGAUUGAGCAUCA
# B2: chr17:49707729:49707944:-|CDS|ENSG00000121073|control|control|control (ssRNA)
# RNA: GGGAGUUCUACAGUCCGACGAUCCUGCCGGUGCCGGUUGUGAGCGGGUCUCCAGUCGGCUCCUCUGGGCGUCUCAUGGCCUCUAGCAGCUCCCUGGUGCCCGACCGGCUGCGCCUGCCGCUCUGCUUCCUGGGUGUCUUUGUCCAACAGAGGAUUGAGCAUCA
# B3: chrX:9032958:9033121:-|CDS|ENSG00000177138|control|control|control (ssRNA)
# RNA: GGGAGUUCUACAGUCCGACGAUCCCAGGUUUCCUUAGCUUCCUUAGUGUGUCUUUGCGCUCACCAGGUUCGGGGAUCGCCUCUAGCUUCCCAGGACAACCAGCCACGGAUCCUGUGGGCAGGAGGGCUGCCAAGGCCCAGUUGCAACAGAGGAUUGAGCAUCA
# B4: chr22:38485951:38486139:-|CDS|ENSG00000100201|unk|total|mutant (ssRNA)
# RNA: GGGAGUUCUACAGUCCGACGAUCCCGCCGCACCACCUCAACUGGGAGAAGUUCACAGAGCUCCCGCCAGCAGUUCCGUGGGACCGGCCGGUCUGGGCAGCAGCCACAGCCACUGAUGUCACAACAGUUUGCACAGCCUCCGGGCAACAGAGGAUUGAGCAUCA
# B5: chr3:23954599:23954720:+|CDS|ENSG00000174738|unk|FALSE|unique (ssRNA)
# RNA: GGGAGUUCUACAGUCCGACGAUCAGUGAGGGUUCUGAGAAUAGUUUCCAGUCCUCCUCCUCUUCUGUUCCAUCUUCUCCAAAUAGCUCUAAUUCUGAUACCAAUGGUAAUCCCAAGAAUGGUGAUCUCGCCAAUAUUGAAGGCCAACAGAGGAUUGAGCAUCA
# B6: chr17:64498535:64498649:-|3pUTR|ENSG00000108654|unk|total|mutant (ssRNA)
# RNA: GGGAGUUCUACAGUCCGACGAUCUUAAACUGAGGCUUUAAUUGAUGUUAAUGCCUUAUGUCAAAUGUAAAGUCCGAAUUUGCCCGGGCUGGGACCGGGAGUGAUAUUUCCCGGACUCCGACAUUGAAAACUAAUUCAGCCUGUCAACAGAGGAUUGAGCAUCA
# B7: chr12:7729382:7729740:-|three_prime_utr|ENSG00000198178|control|control|control (ssRNA)
# RNA: GGGAGUUCUACAGUCCGACGAUCAUCUACAUAUAAAUGAAAUAUUCUCCCUGGAAAUGUGUUUGGGUUGGCAUCCACCGUUGUAGAAAGCUAAAUUGAUUUUUUAAUUUAUGUGUAAGUUUUGUACAAGGAAUGCCCCUAAAACAACAGAGGAUUGAGCAUCA
# B8: chrX:53645320:53645442:-|CDS|ENSG00000086758|unk|total|mutant (ssRNA)
# RNA: GGGAGUUCUACAGUCCGACGAUCUUAUUGGCUUCCUCUGAUAUGCAAGUGGUGCUGGCAGUCCUCAAUCUCCUAUAUGUAUUCCGCAAAAGAUCAAACUACAUCACUCGUCUGGGAUCUGACAAGAGGACCCCGCUGCUAACUCAACAGAGGAUUGAGCAUCA
# B9: chr16:46956839:46956924:-|3pUTR|ENSG00000069345|msi1_unk|total|mutant (ssRNA)
# RNA: GGGAGUUCUACAGUCCGACGAUCAUCAAUCCAGAUGAACUGAGGGACAUCUGUUGGUCUAUGUAUAACUUUUAAAAUUGGUACCGUAUCUACAGAGUGUAUAAUUUAAACUAACCACAAAGCUUUACAUCUUCAUUUUGACUGCAACAGAGGAUUGAGCAUCA
# B10: chr5:80438700:80438808:+|CDS|ENSG00000039319|unk|total|mutant (ssRNA)
# RNA: GGGAGUUCUACAGUCCGACGAUCAGAUACAACCGAAAGUGAACCCAGCACAGCAGAUACCGUUGUUCCAAUCACUUGUGCUACCGAUUCUACAGCUGAUCCACAGGUCCGCUUCAACUCUAAUUACAUUGAUACCGAAAGUAACAACAGAGGAUUGAGCAUCA
# B11: chrX:8528873:8532994:-|three_prime_utr|ENSG00000011201|control|control|control (ssRNA)
# RNA: GGGAGUUCUACAGUCCGACGAUCAUGCACACUUCCAGAGGCAGUGGGAACUGCUCAGAGGCCCGGACUCUCCUAUGUGACUUUAGUGCAGGAAGAACUUCUGUCAAUCAUGGACGCAUCUGGAGACAAGUGAGAAACAGUAGACAACAGAGGAUUGAGCAUCA
# B12: ENSG00000070961:be:win_651|CDS|ENSG00000070961|bound_else_gene|NA|bound_elsewhere_windowed (ssRNA)
# RNA: GGGAGUUCUACAGUCCGACGAUCAGUGAAAUAUGGUGAUCUUCUUCCAGCUGACGGCAUACUUAUUCAAGGCAACGAUCUUAAAAUUGAUGAAAGCUCAUUGACUGGUGAAUCAGAUCAUGUUAAAAAGUCUUUAGAUAAGGACAACAGAGGAUUGAGCAUCA
# B13: chr1:192811693:192811799:+|3pUTR|ENSG00000116741|unk|total|mutant (ssRNA)
# RNA: GGGAGUUCUACAGUCCGACGAUCCUUGAAUUCAGCCUGGGUGUUCAGGAAACAUCACUCAGAACUAUUGAUUCAAAGUUGGGCCGUGAAUCAGGAAGCCAGUAACUGACCCGGAGAAGCUGGUAUCAGAACAGCUUCCCUCACCAACAGAGGAUUGAGCAUCA
# B14: chr10:110887682:110887783:+|CDS|ENSG00000150593|msi1|FALSE|bound_elsewhere (ssRNA)
# RNA: GGGAGUUCUACAGUCCGACGAUCGUUAAGAGAUUUAAAUCUUGGUGAAAUGAAAAGUGGAGUACCAGUGUUGGCAGUAUCCUUAGCAUUGGAGGGGAAGGCUAGUCAUAGAGAGAUGACAUCUAAGCUUCUUUCUGACCUUUGCAACAGAGGAUUGAGCAUCA
# B15: chr1:206732925:206733026:+|3pUTR|ENSG00000162889|msi1|FALSE|unique (ssRNA)
# RNA: GGGAGUUCUACAGUCCGACGAUCAAGUGAGCAAGGUGCUCUUGAACCUGUGCUCAUUUUGCAAUUUUAUCAGUAAUUUGACUUAGAGUUUUUACGAAACCUCUUUUGUUGUCCUUGCCCCACUCCUCUCCACCAGACGCCUUCCAACAGAGGAUUGAGCAUCA
# B16: chr12:10081268:10081413:-|three_prime_utr|ENSG00000150048|control|control|control (ssRNA)
# RNA: GGGAGUUCUACAGUCCGACGAUCUCAGUACUACCAGCUCUCCAAUACUGGUCAAGACACCAUUUCUCAAAUGGAAGAAAGAUUAGGAAAUACGUCCCAAGAGUUGCAAUCUCUUCAAGUCCAGAAUAUAAAGCUUGCAGGAAGCAACAGAGGAUUGAGCAUCA
# B17: chr15:39595431:39595532:+|3pUTR|ENSG00000137801|msi1_unk|total|mutant (ssRNA)
# RNA: GGGAGUUCUACAGUCCGACGAUCCCCCAGGAUCACUUCUCCUUGGCUUCCUUCUUUUCUGUGCUUGCAUCAGUGUGGACUCCCCGAACGUGCGACCUGCCUCAAGAAAAUGCAGUUUUCAAAAACAGACUCAGCAUUCAGCCUCAACAGAGGAUUGAGCAUCA
# B18: chr4:138169334:138169435:-|3pUTR|ENSG00000151012|msi1|FALSE|unique (ssRNA)
# RNA: GGGAGUUCUACAGUCCGACGAUCCCAUUUCACGCAGAAAAAAAGUCAGCCAGUAAUUAAGAAAAAAAGUGAUGGAGAUUAAGUAGUAUUUUGGCUUAUUUUUAGGACUCAUCAUGAGAAGACACAGUUCCUUUAAUCAGGAAACAACAGAGGAUUGAGCAUCA
# B19: chrX:150470157:150470258:+|CDS|ENSG00000013619|unk|FALSE|unique (ssRNA)
# RNA: GGGAGUUCUACAGUCCGACGAUCUCCAAAUGAGCUAGAUCUUGAGAAGAUACUGGGGACGAAGCCAGAAGAGCCACUGGUUUUAGAUCAUCCCCAGGCAACCCUAAGCACAACUCCCAAGCCUUCGGUUCAGAUGUCACACUUCAACAGAGGAUUGAGCAUCA
# B20: chr1:42696720:42696786:+|CDS|ENSG00000065978|msi1_unk|total|mutant (ssRNA)
# RNA: GGGAGUUCUACAGUCCGACGAUCCCAGUUCAAGGCAGUAAAUAUGCAGCAGACCGUAACCAUUACCGACGCUAUCCACGUCGCCGGGGUCCUCCACGCAAUUACCAGCAAAAUUACCAGAACCGUGAGAGUGGGGAAAAGAACCAACAGAGGAUUGAGCAUCA
# B21: ENSG00000130818:stop:overlap|stop_codon|ENSG00000130818|stop_codon|NA|stop_codon (ssRNA)
# RNA: GGGAGUUCUACAGUCCGACGAUCAGCAAUGCGGGAAAGCUUACAGUCAUCCCCGUUCACUUCGAAGACAUGAACAAAUUCACUAGUGAGAAACUGUCCAUGUAAUAAAUGUGGGAAAGCUCUCAUUUGUUCCAGUUCACUUUACAACAGAGGAUUGAGCAUCA
# B22: ENSG00000070961:be:win_3201|CDS|ENSG00000070961|bound_else_gene|NA|bound_elsewhere_windowed (ssRNA)
# RNA: GGGAGUUCUACAGUCCGACGAUCAUUCCUCAAAGAAGCUGGUCAUGGAACACAAAAGGAAGAAAUACCUGAGGAGGAAUUAGCAGAGGAUGUUGAAGAGAUUGAUCACGCUGAAAGGGAGUUGCGGCGUGGCCAAAUCUUGUGCAACAGAGGAUUGAGCAUCA
# Target: MSI1 full-length (mouse, UniProt Q61474 1-362)
# Assay: nsRBNS (natural sequence RNA bind-n-seq); RBNS binding buffer (assumed for nsRBNS): 25 mM Tris pH 7.5, 150 mM KCl, 3 mM MgCl2, 0.01% Triton X-100, 500 ug/ml BSA, 20 U/ml SUPERase-In, 4 C; UNK is unkempt and MSI1 is Musashi-1; names of the RNAs are library labels; protein concentration not given here; high values mean tight binding
# Sequence of UniProt Q61474 (Q61474 whole entry): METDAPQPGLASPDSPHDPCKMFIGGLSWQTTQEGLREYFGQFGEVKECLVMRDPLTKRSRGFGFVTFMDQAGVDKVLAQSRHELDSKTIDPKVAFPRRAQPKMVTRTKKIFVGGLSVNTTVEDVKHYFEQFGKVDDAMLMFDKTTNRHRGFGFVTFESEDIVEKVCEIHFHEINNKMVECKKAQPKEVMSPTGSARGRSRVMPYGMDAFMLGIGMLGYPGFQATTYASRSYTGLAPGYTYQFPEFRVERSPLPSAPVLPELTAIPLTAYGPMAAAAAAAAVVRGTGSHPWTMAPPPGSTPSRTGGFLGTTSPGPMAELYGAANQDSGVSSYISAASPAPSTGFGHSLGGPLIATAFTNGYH
row,Binder,binding signal [enrichment R]
1,B1,0.329
2,B2,0.322
3,B3,0.802
4,B4,0.45
5,B5,1.23
6,B6,0.202
7,B7,0.681
8,B8,0.555
9,B9,1.69
10,B10,0.458
11,B11,0.626
12,B12,0.444
13,B13,0.262
14,B14,0.672
15,B15,0.415
16,B16,0.335
17,B17,0.46
18,B18,19.3
19,B19,0.493
20,B20,0.428
21,B21,2.07
22,B22,0.445
